Data taken from PubChem BioAssay AID624171 (National Center for Advancing Translational Sciences (NCATS), 2012).
Hit rate of the full screen: of about 410,000 compounds, about 1,200 (0.29%) were called active. Inconclusive means that the source gave no clear call. Such entries were picked first, then a sample of the others. Calls follow the shape of the dose curve; as a rule, active = well fitted activation curve with a large enough effect; inconclusive = small, poorly fitted or top-dose-only effect; inactive = flat fitted curve, though single readings scatter. Where the call is inconclusive, the potency comes from a doubtful curve fit.

Assay: qHTS of Nrf2 Activators; also: nearly all actives have a fitted effect of over 65% in size
Conditions: AREc32 ARE-luciferase reporter (MCF7-derived line), luminescence, 24 h; series mostly up to 46.1 µM
In short: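 For detection, Steady-Glo was added and plates sat 30 min at RT; before that, AREc32_Fluc cells grown overnight in OPTI-MEM/5% FBS had been treated with 23 nL compound for 24 hr at 37 deg C.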
Potency is read from the fitted curve at half-maximal effect; tags tell the direction and shape of the fitted curve.

Structure (SMILES) | Potency
CCCCCc1cc(=O)oc2c(C(CCN3CCCC3)c3cc(OC)c(OC)c(OC)c3)c(OC)cc(OC)c12 (stereo not drawn) | inactive
O=C(CSC1CS(=O)(=O)c2cc([N+](=O)[O-])ccc21)NNC(=O)c1ccc(Cl)cc1 (stereo not drawn) | inconclusive: 12.6 µM [activator, single point]
Cc1ccc(C)c(C(=O)COC(=O)c2cc([N+](=O)[O-])ccc2NCCO)c1 | inconclusive: 3.16 µM [activator, single point]
COc1ccc2nc(-c3ccco3)c(-c3ccco3)nc2c1 | inconclusive: 12.6 µM [activator, partial curve, poor fit]
O=C(Nc1cccc(Cl)c1Cl)c1ccco1 | inconclusive: 22.4 µM [activator, partial curve, poor fit]
O=[N+]([O-])c1cc(C(F)(F)F)ccc1NCCc1c[nH]c2ccccc12 | inactive
Cn1c(=O)c2c([nH]c(=S)n2CCCc2ccccc2)n(C)c1=O | inactive
O=C(CN1C(=O)/C(=C\c2ccccc2Cl)Oc2ccccc21)NCc1cccnc1 | inconclusive: 35.5 µM [activator, partial curve, poor fit]
N=c1scc(-c2ccccc2)n1/N=C/c1ccco1 | active: 11.2 µM
CCOC(=O)c1ccc(N2C(=O)c3[nH]nc(-c4ccc(C)cc4)c3C2c2cccs2)cc1 (stereo not drawn) | inactive
Cn1c(=O)c(C(=O)Nc2ccccn2)c(O)c2ccccc21 | inconclusive: 0.562 µM [activator, full curve, poor fit]
CC(C)(C)c1ccc(C(=O)NCCOc2ccccc2F)cc1 | inactive
Cc1ccccc1N/C(=C(/C(Cl)=C(Cl)Cl)[N+](=O)[O-])n1nnc2ccccc21 | inconclusive: 35.5 µM [activator, partial curve, poor fit]
CNC(=O)COC(=O)c1cc(-c2ccco2)nc2ccccc12 | inconclusive: 22.4 µM [activator, single point]
CS(=O)(=O)c1ccc(S(=O)CC(=O)Oc2ccc(Cl)cc2)c([N+](=O)[O-])c1 (stereo not drawn) | inconclusive: 7.08 µM [activator, partial curve]
O=S(=O)(c1cccs1)N1CCN(S(=O)(=O)c2cccs2)CC1 | inactive
COc1ccc(-c2nc3c(C(=O)NCCN(C)C)cccc3c3ccccc23)cc1 | inconclusive: 31.6 µM [activator, partial curve, poor fit]
Cc1ccsc1C=Nc1ccc(O)cc1 | inconclusive: 31.6 µM [activator, single point]
O=C1OC(c2ccccc2)=CC1=Cc1ccccc1O | inconclusive: 15.8 µM [activator, single point]
CC1CCN(C(=O)c2cc(-c3ccco3)on2)CC1 | active: 14.1 µM
CCSc1ncc(Cl)c(C(=O)Nc2nnc(CC)s2)n1 | inconclusive: 11.2 µM [activator, partial curve, poor fit]
CC1CCc2c(cc(-c3ccccc3)n2-c2ccc(C(=O)NC(C)C)cc2)C1 (stereo not drawn) | active: 2.82 µM
Cc1cc(Cl)cc2sc(NC(=O)c3ccco3)nc12 | inconclusive: 1.12 µM [activator, full curve, poor fit]

Structure (SMILES) | Potency
CCCNS(=O)(=O)c1cc(-c2nn3c(C)nnc3c3ccccc23)ccc1C | inconclusive: 17.8 µM [activator, single point]
N#Cc1nc(-c2ccccc2F)oc1N1CCCC1 | inconclusive: 15.8 µM [activator, single point]
Cc1cc(N/C=C/C(=O)c2ccccc2)ccc1Br | active: 5.62 µM
COc1ccc2nc(N(CCN(C)C)C(=O)c3ccc(C(=O)c4ccccc4)cc3)sc2c1 | inactive
COc1ccc(NC(=O)c2cc(=O)c3ccccc3o2)cc1Cl | inconclusive: 25.1 µM [activator, single point]
CCOCCCNC(=O)c1ccc(-n2c(-c3ccccc3)cc3c2CCC(C)C3)cc1 (stereo not drawn) | inconclusive: 8.91 µM [activator, partial curve]
CCC(=O)Nc1ccc(C(=O)Cn2ncc(Cl)c(Cl)c2=O)cc1 | active: 6.31 µM
O=C(CC(=O)c1c(F)cccc1Cl)c1ccccc1O | inconclusive: 1.41 µM [activator, partial curve, poor fit]
CC(c1ccco1)N(C(=O)c1ccccc1NS(=O)(=O)c1ccc(Cl)c([N+](=O)[O-])c1)c1ccccn1 (stereo not drawn) | inconclusive: 22.4 µM [activator, single point]
Cc1cccc(NC(=O)c2nc[nH]c2C(=O)NCCCCCNC(=O)OC(C)(C)C)c1 | inactive
N#C/C(=C(/O)COC(=O)CSc1ccc2ccccc2c1)c1nc2ccccc2[nH]1 | inconclusive: 35.5 µM [activator, single point]
COc1cnc(-c2ccccn2)nc1Sc1cccc(Cl)c1 | inactive
Cn1c(=O)c2nc(-c3ccccc3)oc2c2ccccc21 | inconclusive: 2 µM [activator, partial curve, poor fit]
COc1ccccc1-c1nnc(NC(=O)C(C)C)s1 | inconclusive: 7.94 µM [activator, partial curve]
CN(c1ccccc1)S(=O)(=O)c1cc(C(=O)OCC(=O)c2c(N)n(C)c(=O)n(C)c2=O)ccc1Cl | inactive
O=C1/C(=C\c2cccnc2)CCc2ccccc21 | inconclusive: 3.55 µM [activator, single point]
COCc1cc(C)nc2c1C(=O)NC(c1ccc(F)cc1)N2Cc1ccccc1 (stereo not drawn) | inactive
O=C(Nc1c(Cl)cccc1Cl)c1cc(-c2ccco2)on1 | inconclusive: 31.6 µM [activator, single point]
COCC(C)NC(=O)CCS(=O)(=O)c1nc(-c2ccc(OC)cc2)cc(C(F)(F)F)n1 (stereo not drawn) | active: 15.8 µM
O=C(CN1CCCN(Cc2ccccc2F)S1(=O)=O)Nc1ccc(F)c(Cl)c1 | inactive
Cc1ccc(NC(=O)CCS(=O)(=O)c2ccc(Br)s2)c(Br)c1 | inactive
CCOC(=O)C(C)(C)N(Cc1ccccc1C)S(=O)(=O)c1ccc(Cl)c([N+](=O)[O-])c1 | inconclusive: 35.5 µM [activator, single point]
COc1ccc2oc(C(=O)Nc3ccccn3)c(C)c2c1 | inconclusive: 2.24 µM [activator, full curve, poor fit]

Structure (SMILES) | Potency
COC(=O)C(C)Oc1ccc2c(c1)O/C(=C\c1ccco1)C2=O (stereo not drawn) | inconclusive: 17.8 µM [activator, single point]
CCCCC[C@@H](/C=C/C1C(=O)C=C[C@H]1C/C=C\CCCC(=O)O)OC(C)=O (stereo partly drawn) | inconclusive: 14.1 µM [activator, single point]
COc1ccc(Cl)cc1C=CC=Nc1ccc(S(N)(=O)=O)cc1 | inconclusive: 31.6 µM [activator, single point]
COc1ccccc1C(=O)N/C(N)=N/c1nc2ccccc2o1 | inconclusive: 35.5 µM [activator, partial curve, poor fit]
O=C(CNC(=O)c1ccccn1)N=Nc1c(O)[nH]c2ccccc12 | inconclusive: 15.8 µM [activator, single point]
CCOC(=O)c1ccsc1NC(=O)CCS(=O)(=O)c1ccccc1 | inconclusive: 3.16 µM [activator, full curve, poor fit]
COc1ccc2c(CN3CCN(c4ccccc4F)CC3)cc(=O)oc2c1 | inactive
CN1CCN(C(=O)CCN2C(=O)/C(=C\c3ccc(Cl)cc3Cl)SC2=S)CC1 | active: 12.6 µM
Cc1ccc2cccc(NC(=S)NC(=O)c3ccnn3C)c2n1 | inconclusive: 11.2 µM [activator, partial curve]
O=C(c1ccccc1)c1ccc2nc(-c3ccco3)c(-c3ccco3)nc2c1 | inconclusive: 17.8 µM [activator, single point]
CCN(CC)Cc1cc(Nc2c3ccccc3nc3c4ccccc4n(C)c23)cc(CN(CC)CC)c1O | inconclusive: 17.8 µM [activator, single point]
Cc1ccc(S(=O)(=O)N2CN(CC3CCCO3)c3nc4ccccc4nc32)c(C)c1 (stereo not drawn) | inactive
COCCCNC(=O)c1ccc(-n2c(-c3ccccc3)cc3c2CCCC3)cc1 | active: 12.6 µM
O=C(NC(=S)N1CCN(c2ccc(F)cc2)CC1)c1cccs1 | inconclusive: 25.1 µM [activator, partial curve, poor fit]
O=C1CCCCc2sc(Br)c([N+](=O)[O-])c2N1 | inconclusive: 35.5 µM [activator, single point]
N#Cc1c(C(F)(F)F)cc(-c2cccs2)nc1SCC(=O)Nc1ccccc1F | inconclusive: 5.01 µM [activator, partial curve]
O=C1C=C(Nc2cccc(Cl)c2)CC(c2ccco2)C1 (stereo not drawn) | inconclusive: 2.82 µM [activator, full curve, poor fit]
COC(=O)c1cccc(NC(=O)NC23CC4CC(CC(C4)C2)C3)c1 | inactive
O=C(/C=C/c1ccc(S(=O)(=O)N2CCOCC2)cc1)NC(=S)NCCCn1ccnc1 | inconclusive: 31.6 µM [activator, single point]
Cc1ccc(S(=O)(=O)c2nc(S(=O)(=O)c3ccccc3)sc2N2CCN(C)CC2)cc1 | inconclusive: 14.1 µM [activator, partial curve, poor fit]
O=C(Cn1ncc(Cl)c(Cl)c1=O)N1CCN(S(=O)(=O)c2ccc3ccccc3c2)CC1 | inconclusive: 0.562 µM [activator, partial curve, poor fit]
CCCCNc1ccc(-c2nc(-c3ccco3)no2)cc1[N+](=O)[O-] | inconclusive: 7.94 µM [activator, partial curve, poor fit]
